Experimental data published in a compilation of properties of binary mixtures (doi:10.1021/acs.jced.9b01032).
Some of these densities may be calculated back from excess volumes.

Test: xn = mol fraction of the nth substance listed
Conditions: 93.2 kPa

CCCC[n+]1ccn(C)c1.F[P-](F)(F)(F)(F)F + NC=O
mass density (288.15 K, x1 = 0.0502): 1185.5 kg/m3 | mass density (288.15 K, x1 = 0.0995): 1218.4 kg/m3 | mass density (288.15 K, x1 = 0.1488): 1243.2 kg/m3 | mass density (288.15 K, x1 = 0.3001): 1292.4 kg/m3 | mass density (288.15 K, x1 = 0.4985): 1328 kg/m3 | mass density (288.15 K, x1 = 0.6976): 1349.7 kg/m3 | mass density (288.15 K, x1 = 0.7792): 1356.2 kg/m3 | mass density (288.15 K, x1 = 0.8902): 1363.3 kg/m3 | mass density (288.15 K, x1 = 1): 1369 kg/m3 | mass density (293.15 K, x1 = 0.0502): 1181.2 kg/m3 | mass density (293.15 K, x1 = 0.0995): 1213.9 kg/m3 | mass density (293.15 K, x1 = 0.1488): 1238.8 kg/m3 | mass density (293.15 K, x1 = 0.3001): 1288 kg/m3 | mass density (293.15 K, x1 = 0.3821): 1305.3 kg/m3 | mass density (293.15 K, x1 = 0.4985): 1323.6 kg/m3 | mass density (293.15 K, x1 = 0.595): 1335.3 kg/m3 | mass density (293.15 K, x1 = 0.8902): 1359 kg/m3 | mass density (293.15 K, x1 = 1): 1364.7 kg/m3 | mass density (298.15 K, x1 = 0.0502): 1176.8 kg/m3 | mass density (298.15 K, x1 = 0.1488): 1234.4 kg/m3 | mass density (298.15 K, x1 = 0.2006): 1254.7 kg/m3 | mass density (298.15 K, x1 = 0.3821): 1300.9 kg/m3 | mass density (298.15 K, x1 = 0.4985): 1319.2 kg/m3 | mass density (298.15 K, x1 = 0.595): 1331 kg/m3 | mass density (298.15 K, x1 = 0.8902): 1354.7 kg/m3 | mass density (303.15 K, x1 = 0.0502): 1172.5 kg/m3 | mass density (303.15 K, x1 = 0.0995): 1205.2 kg/m3 | mass density (303.15 K, x1 = 0.1488): 1230 kg/m3 | mass density (303.15 K, x1 = 0.2006): 1250.3 kg/m3 | mass density (303.15 K, x1 = 0.3001): 1279.2 kg/m3 | mass density (303.15 K, x1 = 0.3821): 1296.5 kg/m3 | mass density (303.15 K, x1 = 0.4985): 1314.9 kg/m3 | mass density (303.15 K, x1 = 0.6976): 1336.6 kg/m3 | mass density (303.15 K, x1 = 0.7792): 1343 kg/m3 | mass density (303.15 K, x1 = 0.8902): 1350.4 kg/m3 | mass density (303.15 K, x1 = 1): 1356.3 kg/m3

NC=O + CCCC[n+]1ccn(C)c1.F[P-](F)(F)(F)(F)F
mass density (288.15 K, x2 = 0): 1138 kg/m3 | mass density (298.15 K, x2 = 0): 1129.5 kg/m3 | mass density (303.15 K, x2 = 0): 1125.3 kg/m3
